Among the data in the RNAGym collection of RNA variant scans (doi:10.7554/elife.90254) are self-cleavage values, retold here.

The source gives no read counts; variants with many changes may rest on few reads.

B1: LINE1-mini (parent)
chain: GGCAGAGCUCAACACAGCGUGGCAAAGUGGCUGUGGCUAGACUGCC

Variants of B1 are the subject of this series. Kind of series: self-cleavage, relative activity (ratio to wild type); higher = more cleavage; in vitro, sequencing; the parent is a self-cleaving ribozyme.
For GGCAGAGCUCGACACAGCGUGGCACAGUGGUUGUGGCUAGACUGCC [A11G A25C C31U], the self-cleavage is 0.01.

For the variant GGCAGAGCUCUACGCAGCGUGGCCAAGUGGCUGUCGCAAGACUGCC [A11U A14G A24C G35C U38A], the self-cleavage turned out to be 0.

In the case of GGCAGAGCUCGACAAAGCGUGGCAAAGUGGCUGUGGCUAGACUGCG [A11G C15A C46G], the self-cleavage is 0.01.

Consider GGCAGAGCUCGACACAGCCGGGCAGGGUGGCUGUGGCUAGACUGCC [A11G G19C U20G A25G A26G], for which the self-cleavage amounted to 0.01.

GGCAGAGCUCGACACAGCGUUGCAAAGUGGCUGUGACUAGACUGCC [A11G G21U G36A]: the self-cleavage is 0.08.

Regarding GGCAGAGCUCGACACACCGUGGCAAAGUGGCUGCGGCUAGACUGCC [A11G G17C U34C], the self-cleavage was determined as 0.04.

On to GGCAGAGCUCGAGACCGCACUGCAAAGUGGCUGUGGCUAGACUGCC [A11G C13G A16C G19A U20C G21U], for which the self-cleavage came to 0.01.

GGCAGAGCUCUACUCUGCGUGGCAAAGGGGCUGUGGCUAGACUGCC [A11U A14U A16U U28G]: the self-cleavage worked out at 0.02.

In the case of GGCAGAGCUCGACACAGCGUGUCAAAGUAGCUGUGGCUAGACUGCC [A11G G22U G29A], the self-cleavage turned out to be 0.1.

On to GGCAGAGCUCGACACAGCGUGGAAAAGUUGCUGUGGCUAGACUGCC [A11G C23A G29U], for which the self-cleavage worked out at 0.02.

Take GGCAGAGCUCGACACAGGGUGGCAAAGUGGCUGUGGCUAGGCUGCC [A11G C18G A41G]: the self-cleavage amounted to 0.02.

For GGCAGAGCUCUACACGGCGUGGCAAAGUGGCUGUCGCGAGACUGCC [A11U A16G G35C U38G], the self-cleavage was found to be 0.01.

For the variant GGCAGAGCUCGACACAGCGGGGCAAAGUGGCUGUGGUUAGACUGCC [A11G U20G C37U], the self-cleavage was 0.02.

For the variant GGCAGAGCUCGACACAGCGUGGCAAAGUGGCUGUGGACAGACUGCC [A11G C37A U38C], the self-cleavage was 0.03.

In the case of GGCAGAGCUCGACACAGCGUAGCAAAGUCGCUGCGGCUAGACUGAC [A11G G21A G29C U34C C45A], the self-cleavage came to 0.01.

GGCAGAGCUCGACACAGCGUGGCAUAGUGGCUGUGGCUAGCCUGCC [A11G A25U A41C]: the self-cleavage was determined as 0.03.

On to GGCAGAGCUCGACACACCGUGGUAAAGUGGCUGUGGCUAGACUGCU [A11G G17C C23U C46U], for which the self-cleavage came out at 0.03.

For GGCAGAGCUCGACACAGCGUCGCAAAGUGGCUUUGGCUAGACUGCC [A11G G21C G33U], the self-cleavage came to 0.03.

GGCAGAGCUCUACUCCGCGUGGGAAAGUGGCUGUGGCUAGACUGCC [A11U A14U A16C C23G]: the self-cleavage is 0.03.

Consider GGCAGAGCUCGACACAGCGUGAAAAAGUGGCUGUGCCUAGACUGCC [A11G G22A C23A G36C], for which the self-cleavage is 0.02.

Regarding GGCAGAGCUCGACACAGCGUGGAAAAGUGGAUGUGGCUAGACUGCC [A11G C23A C31A], the self-cleavage was determined as 0.03.

GGCAGAGCUCGACAAAGCGUGGCAAAGUGGGUGUGGCUCGACUGCC [A11G C15A C31G A39C]: the self-cleavage stood at 0.

For the variant GGCAGAGCUCGACACAGCGUGGCAAACUGCCUGCGGCUAGACUGCC [A11G G27C G30C U34C], the self-cleavage worked out at 0.01.

For GGCAGAGCUCGAAACAGCGUGGCAAAGAGGCUGGGGCUAGACUGCC [A11G C13A U28A U34G], the self-cleavage worked out at 0.01.

Consider GGCAGAGCUCGACACAGCGUGGCAAAGUGGCCGUGGCUAAACUGCC [A11G U32C G40A], for which the self-cleavage was found to be 0.01.

Take GGCAGAGCUCGACACGGUGUGGCUAAGUCGCUGUGGCUAGUCUGUC [A11G A16G C18U A24U G29C A41U C45U]: the self-cleavage stood at 0.

On to GGCAGAGCUCGACACAGCGUGGCAAAGUGGCUGUGUACAGACUGCC [A11G G36U C37A U38C], for which the self-cleavage worked out at 0.02.

As for GGCAGAGCUCGAGACCGCGUGGCAAAGUGGCUGUGCCUAGACUGCC [A11G C13G A16C G36C], the self-cleavage came out at 0.

Take GGCAGAGCUCGACAAAGCGUGGCAAAGUGGCUGUGCCUAGACUGCC [A11G C15A G36C]: the self-cleavage was found to be 0.06.

As to GGCAGAGCUCGACACAGCGUGGCUUAGUGGCUGUGGCUUUACUGCC [A11G A24U A25U A39U G40U], the self-cleavage was 0.03.

Turning to GGCAGAGCUCUCCACAGCGUGGAAAAGUGGCUGUGGCUCGACUGCC [A11U A12C C23A A39C], the self-cleavage stood at 0.

GGCAGAGCUCUACUCAGCGUGACAAAGUGGCUUUGGCGAGACUGCC [A11U A14U G22A G33U U38G]: the self-cleavage was found to be 0.04.

In the case of GGCAGAGCUCGACACAGCCUGGCAAAGUGGCUAUGGCUAGACUGCC [A11G G19C G33A], the self-cleavage came out at 0.01.

On to GGCAGAGCUCUUCACAGCGUGGCAAAGUGGCUGUGGUUAGACUGCC [A11U A12U C37U], for which the self-cleavage was 0.

GGCAGAGCUCGACACAGCGUGGCAAAGUGGCUGUGUCUAGACUGCU [A11G G36U C46U]: the self-cleavage was 0.03.

Turning to GGCAGAGCUCUACACCGCGUGGCAAAGUGGCUGUGGCUAGACUCCC [A11U A16C G44C], the self-cleavage amounted to 0.01.

In the case of GGCAGAGCUCGAAACAGCGUGGCUAAGUGGCUGUUGCUAGACUGCC [A11G C13A A24U G35U], the self-cleavage was 0.02.

Turning to GGCAGAGCUCGACACAGCGGGGCAAAGUGGCUGUGGCUAGACUGAC [A11G U20G C45A], the self-cleavage came out at 0.03.

As for GGCAGAGCUCGACACAACGUGGCAAAGUGGCUUUGGCUAGACUGCC [A11G G17A G33U], the self-cleavage is 0.03.

Turning to GGCAGAGCUCGACACAGCGUGGCAAAGUGGCUGUGGUUAGCCUGCC [A11G C37U A41C], the self-cleavage was determined as 0.01.

GGCAGAGCUCGACUCAGCGUGGCAAAGUGGCUAUGGCUAGACUUCC [A11G A14U G33A G44U]: the self-cleavage came to 0.01.

Consider GGCAGAGCUCGACACAGCGUGGCAAAGAGGCUGUGGCUCGACUGCU [A11G U28A A39C C46U], for which the self-cleavage came to 0.02.

Turning to GGCAGAGCUCGACACAGAGUGGCAAAGUGGCUGUGGCUAGACGGCC [A11G C18A U43G], the self-cleavage was 0.02.

Regarding GGCAGAGCUCGACACAGCGUGGCGAAGUGGCUGUGGCUAGUCUGCC [A11G A24G A41U], the self-cleavage came to 0.01.

Take GGCAGAGCUCGACACAGGUUGGCAAAGUGGCUGUGGCUAGACUGCC [A11G C18G G19U]: the self-cleavage was 0.01.

Regarding GGCAGAGCUCGACACAGCGGUGCAAAGUGGCUGUGGCUUGACUGCC [A11G U20G G21U A39U], the self-cleavage is 0.02.

GGCAGAGCUCGACACAGCGUGGUUAAGUGGCUGUGGCUAGACUGCC [A11G C23U A24U]: the self-cleavage was 0.01.

In the case of GGCAGAGCUCUGCACAGCGUGGCGAAGUGGCUGUGACUAGACUGCC [A11U A12G A24G G36A], the self-cleavage was 0.04.

On to GGCAGAGCUCGACACAGCGUGGCAAACUGGUUGUGGCUAGACUGCC [A11G G27C C31U], for which the self-cleavage was determined as 0.04.

Turning to GGCAGAGCUCGACACAGCGUGGCAAAGUGGCUGUGGCUAGAUUACC [A11G C42U G44A], the self-cleavage is 0.01.

With GGCAGAGCUCGACACAGAGAGGCAAAGUGGCUGUGGCUAGACUGCC [A11G C18A U20A], the self-cleavage was determined as 0.

Consider GGCAGAGCUCGACACAGCUUGGCAGAGUGGCAGUCGCUAGACUGCC [A11G G19U A25G U32A G35C], for which the self-cleavage was determined as 0.01.

On to GGCAGAGCUCGACACAGGGUCGAAAAGUGGCUGUGGCUAUACUGCC [A11G C18G G21C C23A G40U], for which the self-cleavage is 0.01.

GGCAGAGCUCGACACAGCGUGGCAAAGUGGCUAUGGCUAGACAGUC [A11G G33A U43A C45U]: the self-cleavage is 0.02.

For GGCAGAGCUCGACACAGAGUGGCAAAGCGGCUGUGGCUAGACUGAC [A11G C18A U28C C45A], the self-cleavage turned out to be 0.02.

As for GGCAGAGCUCGACACAGCGUAGCAAAGUAACUGUGAGUAGACUGCC [A11G G21A G29A G30A G36A C37G], the self-cleavage is 0.
